The list shows a part of the results.

The chains are these.
B1: chr3:89481969:89482070:+|3pUTR|ENSG00000044524|msi1|total|mutant (ssRNA)
RNA: GGGAGUUCUACAGUCCGACGAUCAUAUGUGUUUACUUUAAACUUGUCUUUUCAAAAUAUUACUCAGUUUAUGUUGUACAAUGCCGAUGGCCUCUUACUAAUGUAAAAUGAUUUGCCGUGGAAACAUUUAUAUUUUUAUAAUAACAACAGAGGAUUGAGCAUCA
B2: chr14:22612100:22612201:+|3pUTR|ENSG00000100439|msi1|FALSE|unique (ssRNA)
RNA: GGGAGUUCUACAGUCCGACGAUCCCACCCCUGACCCAUCUGUCAGCUUUUUCCCAGGGAGCCGUUUCAGGGGUUCUGGGCAGUAGGCUGGGCCUGGCCUCAGAACCUGGUGGCUCCUGCCUGCUCCUUCACUUUUGUAAAACCCAACAGAGGAUUGAGCAUCA
B3: chr8:23842113:23842214:-|3pUTR|ENSG00000159167|msi1|FALSE|unique (ssRNA)
RNA: GGGAGUUCUACAGUCCGACGAUCACUUUAGACAUUUUUGUGCCAUUAUAUUUGCAUUAUGUAUUUAUAAUUUAAAUGAUAUUUAGGUUUUUGGCUGAGUACUGGAAUAAACAGUGAGCAUAUCUGGUAUAUGUCAUUAUUUAUCAACAGAGGAUUGAGCAUCA
B4: ENSG00000070961:be:win_1|CDS|ENSG00000070961|bound_else_gene|NA|bound_elsewhere_windowed (ssRNA)
RNA: GGGAGUUCUACAGUCCGACGAUCAUGGGCGACAUGGCAAACAACUCAGUUGCUUACAGUGGUGUGAAAAACUCUUUGAAGGAAGCUAAUCAUGAUGGAGACUUUGGAAUUACGCUCGCAGAGCUGCGGGCUCUCAUGGAGCUCCAACAGAGGAUUGAGCAUCA
B5: chr11:95131931:95132033:+|3pUTR|ENSG00000149218|unk|FALSE|bound_elsewhere (ssRNA)
RNA: GGGAGUUCUACAGUCCGACGAUCGGAUAGGUGGCUGAGACCCACUGCCCUGAGCUACUAGUGUGGCUGUGCCUGUGGGUCUCUAGAACCAUCUGCAUUGGACGUGAAGCCACAGCAGGUGGCUGGACUGCUGGCCUGUUCCUACAACAGAGGAUUGAGCAUCA
B6: chr4:2944067:2944171:-|CDS|ENSG00000087269|unk|total|mutant (ssRNA)
RNA: GGGAGUUCUACAGUCCGACGAUCGGCUUUGUCCCAGAGGUUUAUACCUGAGCUUAUUAAUUUUCUUCUUGGGAUUCUUUACACCGCAACUCCAAACAAAGCAAGCCAAGGUGAGUUGAUUUGAGGGAGGUUCCUACAAAUAUGCAACAGAGGAUUGAGCAUCA
B7: chr2:1632407:1632508:-|3pUTR|ENSG00000130508|msi1|total|mutant (ssRNA)
RNA: GGGAGUUCUACAGUCCGACGAUCUUGGUAAGUGAUUGAUAAAAAUUGGUUGGUGUUUCAUGACAUGUGGACUUCUUUUGAAACCGCAAGUCAAAUGCCGUGACCAAAUUGUGGAAGAGAUUUCUGUCAAACCGGAAAUGUGUACAACAGAGGAUUGAGCAUCA
B8: chr6:73641827:73641929:-|CDS|ENSG00000119899|unk|total|mutant (ssRNA)
RNA: GGGAGUUCUACAGUCCGACGAUCGAGAAAAGAGCUGCUCUGUGAAGGUCUUAAAGGAUUGUUUUAUUCUUUUCUGAUUUUUGCCGGGUAAGAAGUACCAAUGGGAUGCAGAAACUCAAGGAUGGAUUCUCGGUUCCUUUUUUUCAACAGAGGAUUGAGCAUCA
B9: chrX:119453419:119453520:+|3pUTR|ENSG00000077713|unk|total|mutant (ssRNA)
RNA: GGGAGUUCUACAGUCCGACGAUCCAGGUAAUUGAAGUGGCUGAGUGGAUACCACGUUGUGAGGUCAGCCACUGGGUCACUUGCCGUCAAUGCAAAGCUUGCACAAACCAACGUCAGCCCCGUUUCACUCAGUUUGACCUGAGACAACAGAGGAUUGAGCAUCA
B10: chr7:149003559:149003660:-|3pUTR|ENSG00000155660|msi1|FALSE|unique (ssRNA)
RNA: GGGAGUUCUACAGUCCGACGAUCUUUUAUACUUUGGUGUUUCACUUCAUGCUCUGAAUACUGAAUAACCAUGAAUGACUGAAUAGUUUAGUCCAGAUUUUUACAGAGGAUACAUCUAUUUUUAUCAUUAUUUGGGGUUUGAAACAACAGAGGAUUGAGCAUCA
B11: chr2:121339258:121339359:-|3pUTR|ENSG00000074054|unk|total|mutant (ssRNA)
RNA: GGGAGUUCUACAGUCCGACGAUCUUUUGAGAUUAAUUCUAAUAACGUAUUUGCUAUUGCAGUGCAGAGCCCACUGCAACUGCCCGGACUGAAAGCAGAGGCUGGGUGCCAGAGCACGUGAUUCUUAACAUCAUUUCCACAGACCAACAGAGGAUUGAGCAUCA
B12: ENSG00000124766:be:win_3201|3pUTR|ENSG00000124766|bound_else_gene|NA|bound_elsewhere_windowed (ssRNA)
RNA: GGGAGUUCUACAGUCCGACGAUCUAAAUCGCUGUUUGGAUUUCCUGAUUUUAUAACAGGGCGGCUGGUUAAUAUCUCACACAGUUUAAAAAAUCAGCCCCUAAUUUCUCCAUGUUUACACUUCAAUCUGCAGGCUUCUUAAAGCAACAGAGGAUUGAGCAUCA
B13: ENSG00000136731:stop:overlap|stop_codon|ENSG00000136731|stop_codon|NA|stop_codon (ssRNA)
RNA: GGGAGUUCUACAGUCCGACGAUCCCAUUACAACCUCUCUUACAACAAAAUGGUUUUCCACUCCAUUGUUGUUAGAAGCCAGAUAGCAGCUGAUGAACCUCCACCAGAAGGAUGUAAUUCGUUUUUUUCAGUGCAUGGAAAGAACAACAGAGGAUUGAGCAUCA
B14: chr1:185309019:185309167:-|CDS|ENSG00000116679|unk|total|mutant (ssRNA)
RNA: GGGAGUUCUACAGUCCGACGAUCGCACACAGAGCAGUGCCCGCUUGCUGCAGUCCCUAUUUAUUUGAAAUCUUUAACCGUGACCGUGAUCCUCAUGGAAUUUCUCACGUUAAAUUUGAUGAUCUCAAUCCAGAAGCUGUUGAACAACAGAGGAUUGAGCAUCA

The target in the test is MSI1 full-length (mouse, UniProt Q61474 1-362). The test can be described thus: nsRBNS (natural sequence RNA bind-n-seq); RBNS binding buffer (assumed for nsRBNS): 25 mM Tris pH 7.5, 150 mM KCl, 3 mM MgCl2, 0.01% Triton X-100, 500 ug/ml BSA, 20 U/ml SUPERase-In, 4 C; UNK is unkempt and MSI1 is Musashi-1; names of the RNAs are library labels; protein concentration not given here; high values mean tight binding.
UniProt Q61474, sequence (Q61474 whole entry): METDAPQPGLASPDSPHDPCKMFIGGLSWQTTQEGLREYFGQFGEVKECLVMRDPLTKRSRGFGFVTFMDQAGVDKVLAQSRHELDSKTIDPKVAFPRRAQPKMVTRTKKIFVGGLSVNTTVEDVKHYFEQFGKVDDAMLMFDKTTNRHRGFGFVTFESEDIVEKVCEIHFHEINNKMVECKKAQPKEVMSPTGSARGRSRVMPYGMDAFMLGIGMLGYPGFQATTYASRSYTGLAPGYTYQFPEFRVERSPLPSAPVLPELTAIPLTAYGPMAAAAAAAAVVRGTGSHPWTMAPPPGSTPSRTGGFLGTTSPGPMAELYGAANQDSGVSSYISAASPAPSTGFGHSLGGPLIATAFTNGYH
B1 gave a binding signal of 0.91 enrichment R. As for B2, the figure is 1.41 enrichment R.

With B3, the binding signal is 2.66 enrichment R. In the case of B4 it was 0.34 enrichment R; in that of B5, 0.403 enrichment R. B6 had a binding signal of 0.592 enrichment R.

B7: the binding signal amounted to 0.154 enrichment R. For the molecule B8, the binding signal worked out at 0.269 enrichment R. Turning to B9, the binding signal was 0.294 enrichment R. As for B10, the binding signal worked out at 3.45 enrichment R. Molecule B11 yielded a binding signal of 0.596 enrichment R. B12 gave a binding signal of 0.493 enrichment R. As to B13, the binding signal stood at 1.83 enrichment R.

For B14, the binding signal worked out at 0.398 enrichment R.

Source of the values: paper PMC12136788.
